Data reported in PubChem BioAssay AID1508642 (National Center for Advancing Translational Sciences (NCATS), 2021).
Screen size: about 43,000 compounds; about 200 (0.47%) were called active. Inconclusive results (about 12%) are left out. Calls come from the whole dose curve; as a rule, active = well fitted cell-killing curve with a large enough effect; inconclusive = small, poorly fitted or top-dose-only effect, or effect the other way; inactive = flat fitted curve, though single readings scatter. The list shows a part of the results.

Test: Cell viability qHTS assay in S16 Pmp22-F2sN cells; note: nearly all actives have a fitted effect of over 65% in size
Settings: S16 Pmp22-F2sN Schwann cells viability, CellTiter-Glo, 24 h; series mostly up to 57.5 µM; activity change, negative = cytotoxicity: at the top concentration
In short: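 S16 Pmp22-F2sN Schwann cells (500-1,000/well) in phenol-red-free DMEM with 10% FBS received 23 nL compound by pin tool for 24 h at 37 °C. Viability was then read as CellTiter-Glo luminescence after 15 min at room temperature.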
% is set by controls: 0 for no effect and ±100 for the full control effect.

SMILES | activity change, negative = cytotoxicity
Cc1cccc(N2CC(C)Cn3c2nc2c3c(=O)n(CC(=O)O)c(=O)n2C)c1 (stereo not given) | inactive: 4.71%
COc1ccc(CNC(=O)c2cc3cc(S(=O)(=O)N4CCCCC4)ccc3n2C)c(OC)c1 | inactive: -12.7%
O=C1N(Cc2cccc(C(F)(F)F)c2)c2ccccc2S(=O)(=O)N1c1cccc(Cl)c1 | inactive: 15.2%
COc1ccc(NC(=O)CCc2c(C)nc3c(c2C)c(=O)n(C)c(=O)n3C)cc1OC | inactive: 5.43%
O=c1c2sc3ccccc3c2n(Cc2cccc(C(F)(F)F)c2)c(=O)n1Cc1ccccc1 | inactive: 0.168%
COc1ccc(NC(=O)CSc2nc(-c3cccs3)cc(C(F)(F)F)c2C#N)cc1 | inactive: 8.75%
CCOC(=O)N1CCc2c(sc(NCc3ccc(N(C)C)cc3)c2C(=O)Nc2ccc(OC)cc2)C1 | inactive: 4.85%
CC1CCc2c(sc(NC(=O)c3ccc(Cl)cc3Cl)c2C#N)C1 (stereo not given) | inactive: 5.35%
CCCCN(CCCC)CCNC(=O)c1cn(C)c2ccc(S(=O)(=O)N3CCCC3)cc2c1=O | inactive: -5.56%
CCOC(=O)c1c(S(=O)(=O)N2CCC(C(=O)Nc3ccc(OCC)cc3)CC2)c(C)n(C)c1C | inactive: 9.33%
Cc1nn(CCC(=O)N2CCN(c3ccccc3)CC2)c(C)c1S(=O)(=O)N1CCCC1 | inactive: 12.7%
CCc1cnc2c(c1SCC(=O)N1CCC(C)CC1)c(=O)n(C)c(=O)n2C | inactive: 0.0114%
Cc1c(NC(=O)Nc2ccc(F)c(Cl)c2)c(=O)n(-c2ccccc2)n1C | inactive: -15.5%
COc1ccc(OC)c(NC(=O)N2c3ccccc3Sc3ccccc32)c1 | inactive: -9.31%
CCc1ccc(C2c3c(-c4cc(C)ccc4O)n[nH]c3C(=O)N2Cc2cccnc2)cc1 (stereo not given) | inactive: -12.9%
Cc1ccc(OCc2nc(-c3ccc(C(=O)N4CCN(c5ccccc5)CC4)cc3)oc2C)cc1 | inactive: 6.85%
CCOc1ccc(CCNC(=O)Cn2nnc(-c3ccc(C(F)(F)F)cc3)n2)cc1OCC | inactive: 12.6%
CC(=O)Nc1nnc(SCc2cc(=O)c3cccc(Cl)c3[nH]2)s1 | inactive: -12.3%
Cn1cc(CCCC(=O)NCc2ccccc2Cl)c2ccccc21 | inactive: -2.22%
CCOC(=O)c1c(NC(=O)CSc2nc(-c3ccccc3)cc(C(F)(F)F)n2)sc(C)c1C | inactive: -5.39%
CCOc1ccc(CCNC(=O)CN2C(=O)c3cccnc3Oc3ccc(Cl)cc32)cc1 | inactive: -1.08%
O=C(c1ccc([N+](=O)[O-])cc1)N1CCN(c2ccc(Nc3ccccc3)nn2)CC1 | inactive: 6.22%
Cc1ccc(CNc2ccc(-c3nc(-c4ccccn4)no3)cc2[N+](=O)[O-])cc1 | inactive: 10.2%
CCOc1ccc(OCC)c(Nc2cc(C)nc3nc(-c4ccco4)nn23)c1 | inactive: -0.782%

SMILES | activity change, negative = cytotoxicity
CC(=O)N1c2ccc(S(=O)(=O)N3CCCCCC3)cc2CC1C(=O)NCc1ccccc1F (stereo not given) | inactive: -43.6%
O=C(CSc1nccn1Cc1ccccc1)Nc1ccc2c(c1)OCO2 | inactive: -11.5%
CCOC(=O)N1CCC(NC(=O)c2ccc3c(c2)N(Cc2cc(C)ccc2C)C(=O)c2ccccc2S3=O)CC1 (stereo not given) | inactive: 2.07%
CCC(C)(C)NC(=O)Cn1c(=O)ccc2cc(S(=O)(=O)N3CCC(C)CC3)ccc21 | inactive: -24.2%
COc1ccc(CCNC(=O)CCn2c(=O)c3cccn3c3cccnc32)c(OC)c1OC | inactive: 1.3%
Cc1cccc(NC(=O)N2CCC(n3c(C)nc4cccnc43)CC2)c1 | inactive: 8.84%
CCOc1cc(C(=O)NCCc2csc(-c3ccc(C)cc3)n2)cc(OCC)c1OCC | inactive: -0.35%
COc1ccc(OC)c(CNC(=O)C2CCN(c3ncnc4c3nc3n4CCCCC3)CC2)c1 | inactive: -8.17%
O=C(Nc1ccc(F)cc1Cl)C1Cc2ccccc2N1C(=O)c1ccccc1 (stereo not given) | inactive: -1.5%
O=C(CCn1nc(-c2ccc(Cl)cc2)c2ccccc2c1=O)Nc1ccc(OC(F)(F)F)cc1 | inactive: 11.9%
CC(=O)c1cccc(NC(=O)c2nc3ccccc3nc2N2CCCCC2)c1 | inactive: 3.4%
CCC(=O)N1CCc2cc(S(=O)(=O)CCC(=O)N3CCN(c4ccc(C(C)=O)cc4)CC3)ccc21 | inactive: -6.98%
CCOc1ccc(-c2cn3c(n2)sc2cc(C(=O)NCCc4ccc(OC)c(OC)c4)ccc23)cc1 | inactive: 2.38%
Cc1ccc(C2=NN(CC(=O)NCCc3ccc(Cl)cc3)C(=O)CC2)cc1 | inactive: -4.98%
CN1C(=O)C2(c3ccccc31)N(c1ccc(F)c(Cl)c1)C(=O)CS2(=O)=O (stereo not given) | inactive: 8.96%
Cc1cc(C)c2c(n1)nn1c(C)c(CCC(=O)NCc3ccc(Cl)cc3)c(C)nc21 | inactive: 3.92%
COC(=O)c1cc(S(=O)(=O)NCC2CCN(Cc3ccccc3F)CC2)c[nH]1 | inactive: 27.8%
O=C(Nc1cc(F)ccc1F)c1cc2nc(-c3ccco3)cc(C(F)(F)Cl)n2n1 | inactive: 4.83%
CCN1CCN(C(c2ccccc2)c2c(O)cc(C)n(Cc3ccco3)c2=O)CC1 (stereo not given) | inactive: 7.38%
COc1ccc(CNC(=O)C2CCN(S(=O)(=O)c3ccc(C)cc3)CC2)cc1 | inactive: 14.3%
Fc1ccc(Cc2cn3cc(-c4ccc(Cl)cc4)nc3s2)cc1 | inactive: 14%
CC1Cc2cc(S(=O)(=O)N(C)c3ccc(Br)cc3)ccc2N1C(=O)C1CC1 (stereo not given) | inactive: -15.7%
CCC1CCCCN1CCCNC(=O)c1cc2c(=O)n(CC)c3ccccc3c2s1 (stereo not given) | inactive: 8.17%
COc1ccc(NC(=O)C2CCCN(S(=O)(=O)c3cccs3)C2)cc1 (stereo not given) | inactive: 22.2%

SMILES | activity change, negative = cytotoxicity
CCN(CC)C(=O)c1sc2c(c1C)c(=O)n(-c1ccc(Cl)c(Cl)c1)c(=O)n2CC(=O)Nc1cccc(OC)c1 | inactive: -15.9%
CCOC(=O)c1nnn(CC(=O)NC(=O)Nc2cccc(CC)c2)c1C(=O)OCC | inactive: -1.95%
O=C(COc1ccc(Cl)cc1)NCCc1csc(-c2ccc(F)cc2)n1 | inactive: -0.126%
COC(=O)c1c(N)n(-c2ccc(OC)c(Cl)c2)c2nc3ccccc3nc12 | inactive: 4%
COc1ccc(-c2nnc3c4ccccc4c(-c4ccccc4)nn23)cc1 | inactive: -13%
O=C(Nc1ccccc1F)c1ccc(-c2ccccc2)s1 | inactive: -1.22%
Cc1nn(C)c(C)c1S(=O)(=O)N(CC(=O)N1CCN(c2ccccc2)CC1)c1ccc(C(C)C)cc1 | inactive: 2.84%
Cc1ccccc1NC(=O)c1ccc(F)c(S(=O)(=O)N(C)C2CCCCC2)c1 | inactive: -14.3%
CCCCCNC(=O)c1ccc2c(c1)nc(C)n2-c1cccc(C)c1 | inactive: -25.1%
O=C(CCn1c(=O)c2cccn2c2ccccc21)Nc1ccc(F)cc1 | inactive: 0.264%
Cc1ccc(C)c(NC(=O)Cn2c(=O)ccc3cc(S(=O)(=O)N4CCCC4)ccc32)c1 | inactive: 2.63%
COc1ccccc1NC(=O)c1cc2c([nH]c1=O)CC(C)(C)CC2=O | inactive: -0.187%
COc1cccc2c1Oc1ncccc1N(C(=O)Nc1cccc(Cl)c1)C2 | inactive: 15.3%
Cc1ccc(CNC(=O)c2cc(S(=O)(=O)N3CCCCCC3)cn2C)cc1 | inactive: 19.6%
COc1ccc(CNS(=O)(=O)c2cnc(N)nc2)cc1 | inactive: -1.25%
Cc1cccc(CNC(=O)c2ccc3c(c2)N(C)C(=O)C2CCCCN32)c1 (stereo not given) | inactive: -27.9%
CCOc1ccc(NS(=O)(=O)c2ccc3[nH]cc(C(=O)NCc4ccccc4)c(=O)c3c2)cc1 | inactive: 4.55%
Cn1nc(-c2ccc(C(=O)Nc3cccc(C(F)(F)F)c3)cc2)c2ccccc2c1=O | inactive: 9.33%
CCCCC(=O)OC1=C(C(=O)c2ccccc2)N(C)S(=O)(=O)c2ccccc21 | inactive: 2.72%
CSc1ccc(CNC(=O)c2cc3cc(S(=O)(=O)N4CCCCC4)ccc3n2C)cc1 | inactive: -9.89%
O=C(Nc1cccc(-c2nc3ccccc3o2)c1)c1cccc(Br)c1 | inactive: 1.76%
CCOC(=O)c1c(Nc2cc(C)cc(C)c2)nnc(-c2ccccc2)c1-c1ccccc1 | inactive: -15.6%
COc1ccc(Cn2ccc3nc(C)c(C(=O)Nc4ccc(OC(F)(F)F)cc4)cc3c2=O)cc1 | inactive: 2.84%
COc1ccccc1CNS(=O)(=O)c1ccc(F)c(C(=O)Nc2cc(Cl)ccc2OC)c1 | inactive: 12.8%

SMILES | activity change, negative = cytotoxicity
O=C(NCC(c1cccnc1)N1CCc2ccccc2C1)C(=O)Nc1ccccc1 (stereo not given) | inactive: -8.63%
COc1ccccc1N1CCN(S(=O)(=O)c2c(C)nc3sc(C)c(C)n3c2=O)CC1 | inactive: -0.155%
COc1cccc(CNC(=O)C2CCN(S(=O)(=O)N3CCC(C)CC3)CC2)c1 | inactive: 10.6%
CC1CCN(S(=O)(=O)c2ccc3nc(Nc4ccc(C#N)cc4)ccc3c2)CC1 | inactive: -7.12%
O=C(Nc1ccccc1)c1cn(-c2ccccc2)nc1-c1ccccc1 | inactive: 2.21%
Cc1cccc(-n2c3nc(=O)[nH]c(=O)c-3cc3c(C)nn(-c4ccccc4)c32)c1C | inactive: -0.64%
COc1ccccc1NC(=O)CSC1=Nc2ccccc2N=C(c2ccc(F)cc2)C1 | inactive: -12.7%
CCN(CC)C(=O)CSc1nc2ccccc2c(=O)n1Cc1ccco1 | inactive: -1.14%
Cc1ccc(NC(=O)Cn2c(-c3cncs3)nc3ccccc32)cc1Br | inactive: 1.76%
COc1ccc(Cl)cc1NC(=O)N1CC(=O)Nc2sc3c(c2C1c1ccccc1)CCCC3 (stereo not given) | inactive: 9.23%
CCCc1nccn1S(=O)(=O)c1cc(Br)ccc1OC | inactive: 3.13%
COc1ccc(NC(=O)CN2C(=O)CCc3cc(S(=O)(=O)N4CCOCC4)ccc32)cc1Cl | inactive: 0.433%
COc1cc2c(C(=O)N(C)c3cc(Cl)ccc3OC)cn(CC(C)C)c(=O)c2cc1OC | inactive: -0.553%
CCN(C(=O)Cn1c(=O)n(CC2CCC(C(=O)NC)CC2)c(=O)c2sccc21)c1ccccc1 (stereo not given) | inactive: 9.82%
Cc1nn(CCCC(=O)Nc2cccc(F)c2)c(=O)c2c1sc1ccccc12 | inactive: 4.62%
Cc1ccccc1CNC(=O)CCC(=O)N1CC2CCCN2c2ccccc21 (stereo not given) | inactive: 23.2%
Cc1cc(O)c(-c2ccnc3cc(-c4ccccc4)nn23)cc1Cl | inactive: 25.2%
CCc1ccc2c(c1)-c1ccccc1S(=O)(=O)N2CC(=O)N1CCC(C)CC1 | inactive: -8.67%
COc1cccc(Cn2c(CNS(=O)(=O)c3ccc4c(c3)CCCC4)nc3cccnc32)c1 | inactive: -23.9%
CC1CCN(S(=O)(=O)c2ccc3c(c2)N(CC(=O)N2CCN(c4ccccc4)CC2)C(=O)CO3)CC1 | inactive: 2.5%
CC(=O)c1ccc(NC(=O)Cn2ncc3c(C)n(Cc4ccc(F)cc4)c(C)c3c2=O)cc1 | inactive: 18.9%
COc1ccccc1C(=O)Nc1nc2nc(C)c(Cc3ccccc3)c(=O)n2[nH]1 | inactive: -0.319%
COc1ccccc1CNc1ncnc2c1c(-c1ccccc1)cn2-c1cccc(C)c1 | inactive: 4.11%
